Source: PubChem BioAssay AID686979 (National Center for Advancing Translational Sciences (NCATS), 2013)
Among all 420,000 compounds or so, about 50,000 (12%) were called active. The inconclusive results got no clear call from the source; some entries with a clear call stand among them for comparison. Calls come from the whole dose curve; as a rule, active = well fitted inhibition curve with a large enough effect; inconclusive = small, poorly fitted or top-dose-only effect; inactive = flat fitted curve, though single readings scatter. No potency is given beside an inconclusive call; the fits are too rough.

Assay: qHTS for Inhibitors of human tyrosyl-DNA phosphodiesterase 1 (TDP1): qHTS in cells in presence of CPT; note: nearly all actives have a fitted effect of over 55% in size
Conditions: chicken DT40 Tdp1-/-;hTDP1 cells + 20 nM CPT, ATP luminescence, 48 h; activity change, negative = growth inhibition: at 46.2 µM (top of the series)
Procedure, shortened: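 Cell growth measured by CellTiter-Glo luminescence after a minimum 48 h, 37 C compound exposure with 20 nM CPT in Tdp1-knockout DT40 cells stably expressing hTDP1, seeded 400/well; qHTS titration format.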
% is set by controls: 0 for no effect and ±100 for the full control effect; potency is the fitted concentration of half-maximal effect; tags give direction and shape of the fitted curve.

SMILES | Potency | activity change, negative = growth inhibition
N#Cc1ccccc1S(=O)(=O)NC(=O)[C@H]1O[C@@H](n2cnc3c(N)ncnc32)[C@H](O)[C@@H]1O | inconclusive [inhibitor, single point] | 
O=C1C[C@H]2C=CCc3cccc(c32)CN1Cc1ccc(F)cc1 | inconclusive [inhibitor, single point] | 
CCn1nc(C)c(NC(=O)c2ccc(Br)o2)c1C |  | inactive: 0.87%
CC(C)CNC(=O)COC(=O)c1c2c(nc3ccccc13)/C(=C/c1cccs1)CC2 | inconclusive [inhibitor, single point] | 
O=C(NCCCn1ccnc1)/C(=C\c1cccnc1)NC(=O)c1ccccc1Br |  | inactive: 3.78%
Cc1ccc(S(=O)(=O)c2nc(-c3ccccc3F)oc2NCc2ccccc2)cc1 | inconclusive [inhibitor, single point] | 
Cc1ccc(Nc2c([N+](=O)[O-])c(=O)n(C)c3ccccc23)cc1C | inconclusive [inhibitor, partial curve] | 
CC(C)C(=O)Nc1cccc(NC(=S)NC(=O)c2cccs2)c1 |  | inactive: -2.28%
O=C(NNC(=S)NC(=O)c1cccc([N+](=O)[O-])c1)c1ccc(Br)cc1 | active: 16.4 µM | 
COc1ccc(CC(=O)NC(c2ccccc2)c2ccccc2)cc1S(=O)(=O)N1CCOCC1 | inconclusive [inhibitor, partial curve] | 
Cc1cc2c(cc3c(SCC(=O)Nc4ccc(Cl)cc4F)nncn32)o1 | inconclusive [inhibitor, single point] | 
CCOC(=O)c1cccc(NC(=O)NC(C)c2c(-n3cccc3)sc3c2CCN(C)C3)c1 (centres undefined) | active: 14.6 µM | 
C=CCn1c(SCc2ccc(C#N)cc2)nnc1-c1cccc(Cl)c1 | inconclusive [inhibitor, partial curve] | 
Cc1ccc(-c2ccc(CCC(=O)O)n2CC2CCCO2)cc1 (centres undefined) |  | inactive: -27.1%
COc1ccc(OC)c(Cc2nnc(CCC(=O)NCc3ccsc3)o2)c1 |  | inactive: -6.37%
CC(=O)NC(C)(c1ccccc1)c1nc(-c2cc(F)cc(F)c2)cs1 (centres undefined) | inconclusive [inhibitor, single point] | 
Cc1ccc(-c2onc3ccc(Cl)cc23)cc1 |  | inactive: -13.6%
CCOCCCNS(=O)(=O)c1ccc(NC(=O)c2ccccc2)cc1 | inconclusive [inhibitor, partial curve, poor fit] | 
CCCCCCN1CCN(C2CN(Cc3cn(Cc4ccc(F)cc4)nn3)S(=O)(=O)C2)CC1 (centres undefined) | inconclusive [inhibitor, single point] | 
CCOC(=O)N1CCN(CC(=O)Nc2ccc(Oc3ccccc3)cc2)CC1 | inconclusive [inhibitor, partial curve] | 
COc1cccc(/C=C2\N=C(SC)SC2=O)c1OC | inconclusive [inhibitor, single point] | 
COc1ccc(S(=O)(=O)N(C)c2ccc(C(=O)N3CCCC3)cc2)cc1OC |  | inactive: -23%

SMILES | Potency | activity change, negative = growth inhibition
O=C(COc1ccccc1F)Nc1ccc(OCc2cc(=O)n3ccccc3n2)cc1 |  | inactive: 2.25%
C=CCc1ccc(OCC(O)CN2CCN(Cc3ccc(Cl)cc3)CC2)c(OC)c1 (centres undefined) | inconclusive [inhibitor, single point] | 
COc1nn(-c2ccccc2)c(=O)c(Cl)c1Cl | active: 5.17 µM | 
Cc1ccc(C2=NN(C(=O)c3ccco3)C(O)(C(F)(F)F)C2)cc1 (centres undefined) | inconclusive [inhibitor, single point] | 
CN(CC(=O)Nc1cccc(F)c1)C(=O)c1ccccc1OCCOc1ccccc1 | inconclusive [inhibitor, single point] | 
COc1ccc(-c2nnc(NC(=O)C3CCCN3S(=O)(=O)c3cccs3)o2)cc1 (centres undefined) | inconclusive [inhibitor, single point] | 
CCN(Cc1ccccc1)C(=O)c1oc2ccc(C)cc2c1C |  | inactive: -1.21%
Cc1ccccc1CN(CC1CCC(C(=O)O)CC1)C(=S)Nc1ccccc1F (centres undefined) |  | inactive: -13.3%
CSc1nc(C)c(C(=O)C[n+]2ccccc2C)cc1C#N | inconclusive [inhibitor, single point] | 
Cn1c(=O)n(C)c2cc(N3CCCCC3)c(NC(=O)c3cccc(Cl)c3)cc21 | inconclusive [inhibitor, single point] | 
COc1ccc(O)c(C(=O)c2coc(=N)c(C(=O)Nc3ccc(SC(F)F)cc3)c2)c1 | inconclusive [inhibitor, partial curve] | 
O=C(Nc1ccccc1C(=O)NCCCN1CCOCC1)c1cccc([N+](=O)[O-])c1 |  | inactive: -10.1%
CN1CCN(S(=O)(=O)c2cccc(C(=O)Nc3ccccc3N3CCCCC3)c2)CC1 | inconclusive [inhibitor, single point] | 
COc1ccc2nc(NC(=O)C3CCCN(S(=O)(=O)c4cccc5nsnc45)C3)sc2c1 (centres undefined) | inconclusive [inhibitor, single point] | 
COc1cccc(C=Cc2nccc3ccccc23)c1OC | inconclusive [inhibitor, single point] | 
CC(C)c1ccc(S(=O)(=O)N2CCN(C(=O)c3cc(-c4ccccc4)n[nH]3)CC2)cc1 |  | inconclusive: -35.9% [inhibitor]
CCC(=O)c1cc(F)ccc1OCC(=O)Nc1ccc2c(c1)OCCO2 | inconclusive [inhibitor, full curve, poor fit] | 
CCc1nc2ccc(C(=O)N(C)CCN(C)C)cn2c1N(C)Cc1cc2ccccc2s1 | inconclusive [inhibitor, single point] | 
CC(=O)c1cnc2nc(SCc3cccc(C)c3)nn2c1C | inconclusive [inhibitor, single point] | 
CN=C(c1ccco1)n1c(=S)nc(-c2ccco2)n(C)c1=S | inconclusive [inhibitor, single point] | 
COC(=O)c1ccc(Cn2c(SCc3ccc(F)cc3)nc3ccncc32)cc1 | inconclusive [inhibitor, single point] | 
Cn1c(SCc2nc3ccccc3[nH]2)nnc1-c1cnccn1 |  | inactive: -1.22%
